According to the supplement of paper PMC4604168 (melanoma cell lines):
This is one part of the list. Most values come without repeats; read them as rough.

Test system: SkMel28
Assay: cell count relative to DMSO control; melanoma cells; higher = more viable cells
Conditions: library dose: standard library concentration; 72 h
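Also: cells treated in 1,536-well plates, then fixed and DAPI-stained, with nuclei counted from automated high-throughput microscope images.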

Compound | cell count [%]
O=C(Nc1cc(C(F)(F)F)cc(C(F)(F)F)c1)c1cc(Cl)ccc1O + Nc1ncn([C@H]2C[C@H](O)[C@@H](CO)O2)c(=O)n1 [decitabine] (first compound 0.08 µM, partner dose 0.5 µM) | 121
O=C(O)[C@@H]1[O][Sb](=[O])([O][Sb]2(=[O])[O][C@H]([C@H](O)CO)[C@H](O)[C@H](C(=O)O)[O]2)[O][C@H]([C@H](O)CO)[C@@H]1O (stereo partly specified) [stibogluconate] + N#Cc1c(O)c2c(-c3ccc(-c4ccccc4O)cc3)csc2[nH]c1=O [A769662] (first compound 10 µM, partner dose 10 µM) | 141
O=C(Nc1ccccc1)c1cc([N+](=O)[O-])ccc1Cl + Cc1cc([N+](=O)[O-])ccc1NS(=O)(=O)c1cc(Cl)ccc1Cl [FH535] (first compound 10 µM, partner dose 5 µM) | 54.2
O=C(Nc1cc(C(F)(F)F)cc(C(F)(F)F)c1)c1cc(Cl)ccc1O + Nc1ccn([C@@H]2O[C@H](CO)[C@@H](O)C2(F)F)c(=O)n1 [gemcitabine] (first compound 0.08 µM, partner dose 0.002 µM) | 114
O=C(Nc1cc(C(F)(F)F)cc(C(F)(F)F)c1)c1cc(Cl)ccc1O + C=CCn1c(=O)c2cnc(Nc3ccc(N4CCN(C)CC4)cc3)nc2n1-c1cccc(C(C)(C)O)n1 [MK1775] (first compound 0.08 µM, partner dose 0.1 µM) | 60.4
O=C(Nc1cc(C(F)(F)F)cc(C(F)(F)F)c1)c1cc(Cl)ccc1O + CCCCCCCCCCCC1=C(O)C(=O)C=C(O)C1=O [Embelin] (first compound 0.08 µM, partner dose 6 µM) | 60.9
Cn1nnc2c(C(N)=O)ncn2c1=O [temozolomide] + CCN(CC)CCCCNc1ncc2cc(-c3cc(OC)cc(OC)c3)c(NC(=O)NC(C)(C)C)nc2n1 [PD173074] (first compound 10 µM, partner dose 0.5 µM) | 50.6
O=C(O)[C@@H]1[O][Sb](=[O])([O][Sb]2(=[O])[O][C@H]([C@H](O)CO)[C@H](O)[C@H](C(=O)O)[O]2)[O][C@H]([C@H](O)CO)[C@@H]1O (stereo partly specified) [stibogluconate] + Nc1ncn([C@H]2C[C@H](O)[C@@H](CO)O2)c(=O)n1 [decitabine] (first compound 10 µM, partner dose 0.5 µM) | 115
O=C(O)c1ccc2c(c1)nc(Nc1cccc(Cl)c1)c1ccncc12 + C=CCn1c(=O)c2cnc(Nc3ccc(N4CCN(C)CC4)cc3)nc2n1-c1cccc(C(C)(C)O)n1 [MK1775] (first compound 2 µM, partner dose 0.1 µM) | 41.8
O=C(O)c1ccc2c(c1)nc(Nc1cccc(Cl)c1)c1ccncc12 + COc1cc(N2CCC(N3CCN(C)CC3)CC2)ccc1Nc1ncc(Cl)c(Nc2ccccc2S(=O)(=O)C(C)C)n1 [NVP-TAE684] (first compound 2 µM, partner dose 0.4 µM) | 65.1
O=C(O)c1ccc2c(c1)nc(Nc1cccc(Cl)c1)c1ccncc12 + Cc1cc([N+](=O)[O-])ccc1NS(=O)(=O)c1cc(Cl)ccc1Cl [FH535] (first compound 2 µM, partner dose 5 µM) | 76.8
O=C(Nc1cc(C(F)(F)F)cc(C(F)(F)F)c1)c1cc(Cl)ccc1O + Cn1c(Nc2ccc(C(F)(F)F)cc2)nc2cc(Oc3ccnc(-c4ncc(C(F)(F)F)[nH]4)c3)ccc21 [CHIR265] (first compound 0.08 µM, partner dose 0.4 µM) | 43.3
O=C(O)[C@@H]1[O][Sb](=[O])([O][Sb]2(=[O])[O][C@H]([C@H](O)CO)[C@H](O)[C@H](C(=O)O)[O]2)[O][C@H]([C@H](O)CO)[C@@H]1O (stereo partly specified) [stibogluconate] + COc1cc2ncnc(Nc3ccc(Oc4ccccc4)cc3)c2cc1OC [SrcI1] (first compound 10 µM, partner dose 10 µM) | 113
O=C(O)c1ccc2c(c1)nc(Nc1cccc(Cl)c1)c1ccncc12 + C#Cc1cccc(Nc2ncnc3cc(OCCOC)c(OCCOC)cc23)c1 [erlotinib] (first compound 2 µM, partner dose 4 µM) | 41.6
Cc1cc(N2CCOCC2)cc2[nH]c(-c3c(NC[C@@H](O)c4cccc(Cl)c4)cc[nH]c3=O)nc12 + Oc1cc(-c2nc(-c3ccccc3)[nH]c2-c2ccncc2)ccc1Cl [L779450] (first compound 1 µM, partner dose 1 µM) | 33.9
O=C(O)[C@@H]1[O][Sb](=[O])([O][Sb]2(=[O])[O][C@H]([C@H](O)CO)[C@H](O)[C@H](C(=O)O)[O]2)[O][C@H]([C@H](O)CO)[C@@H]1O (stereo partly specified) [stibogluconate] + O=S(=O)(c1ccccc1)N(CC(F)(F)F)c1ccc(C(O)(C(F)(F)F)C(F)(F)F)cc1 [T0901317] (first compound 10 µM, partner dose 7 µM) | 111

Compound | cell count [%]
O=C(O)[C@@H]1[O][Sb](=[O])([O][Sb]2(=[O])[O][C@H]([C@H](O)CO)[C@H](O)[C@H](C(=O)O)[O]2)[O][C@H]([C@H](O)CO)[C@@H]1O (stereo partly specified) [stibogluconate] + Cn1cncc1[C@@](N)(c1ccc(Cl)cc1)c1ccc2c(c1)c(-c1cccc(Cl)c1)cc(=O)n2C [tipifarnib] (first compound 10 µM, partner dose 0.05 µM) | 79.9
O=C(Nc1cc(C(F)(F)F)cc(C(F)(F)F)c1)c1cc(Cl)ccc1O + COc1ccc(COc2ccc(Cc3cnc(N)nc3N)cc2OC)cc1 [GW2580] (first compound 0.08 µM, partner dose 5 µM) | 126
O=C(Nc1cc(C(F)(F)F)cc(C(F)(F)F)c1)c1cc(Cl)ccc1O + Cc1cc([N+](=O)[O-])ccc1NS(=O)(=O)c1cc(Cl)ccc1Cl [FH535] (first compound 0.08 µM, partner dose 5 µM) | 68
O=C(Nc1cc(C(F)(F)F)cc(C(F)(F)F)c1)c1cc(Cl)ccc1O + Cn1cc(/C=C2\C(=O)Nc3cccnc32)c2ccccc21 [GW441756] (first compound 0.08 µM, partner dose 2 µM) | 122
O=C(O)c1ccc2c(c1)nc(Nc1cccc(Cl)c1)c1ccncc12 + CCc1ccc(CCOc2ccc(CC3SC(=O)NC3=O)cc2)nc1 [pioglitazone] (first compound 2 µM, partner dose 10 µM) | 44.1
Cc1cc(N2CCOCC2)cc2[nH]c(-c3c(NC[C@@H](O)c4cccc(Cl)c4)cc[nH]c3=O)nc12 + CC(C)CCN1c2nc(Nc3cc(F)c(O)c(F)c3)ncc2N(C)C(=O)C1C [BID1870] (first compound 1 µM, partner dose 1 µM) | 50.8
O=C(Nc1ccccc1)c1cc([N+](=O)[O-])ccc1Cl + COc1ccc(-c2ccc3c(N4CCOCC4)nc(N4C[C@@H](C)O[C@@H](C)C4)nc3n2)cc1CO [KU0063794] (first compound 10 µM, partner dose 0.1 µM) | 59.7
O=C(O)c1ccc2c(c1)nc(Nc1cccc(Cl)c1)c1ccncc12 + O=c1cc(-c2cccc3c2Sc2ccccc2S3)oc(N2CCOCC2)c1 [KU55933] (first compound 2 µM, partner dose 5 µM) | 61.8
O=C(O)c1ccc2c(c1)nc(Nc1cccc(Cl)c1)c1ccncc12 + c1cc(-c2cnn3cc(-c4ccc(OCCN5CCCCC5)cc4)cnc23)ccn1 [Dorsomorphin] (first compound 2 µM, partner dose 2 µM) | 60.5
Cn1nnc2c(C(N)=O)ncn2c1=O [temozolomide] + Cc1cc([N+](=O)[O-])ccc1NS(=O)(=O)c1cc(Cl)ccc1Cl [FH535] (first compound 10 µM, partner dose 5 µM) | 32.3
O=C(Nc1cc(C(F)(F)F)cc(C(F)(F)F)c1)c1cc(Cl)ccc1O + COc1ccc2c(c1)CCC1C2CCC2(C)C(NCCCCCCN3C(=O)C=CC3=O)CCC12 [U73122] (first compound 0.08 µM, partner dose 2 µM) | 92.8
Cc1cc(N2CCOCC2)cc2[nH]c(-c3c(NC[C@@H](O)c4cccc(Cl)c4)cc[nH]c3=O)nc12 + Oc1nc(-c2ccc(C(F)(F)F)cc2)nc2c1CSCC2 [XAV939] (first compound 1 µM, partner dose 10 µM) | 63.6
O=C(Nc1cc(C(F)(F)F)cc(C(F)(F)F)c1)c1cc(Cl)ccc1O + CC(=O)O[C@@]12CO[C@@H]1C[C@H](O)[C@@]1(C)C(=O)[C@H](O)C3=C(C)[C@@H](OC(=O)[C@H](O)[C@@H](NC(=O)OC(C)(C)C)c4ccccc4)C[C@@](O)([C@@H](OC(=O)c4ccccc4)[C@H]21)C3(C)C [Docetaxel] (first compound 0.08 µM, partner dose 0.0005 µM) | 19
O=C(Nc1ccccc1)c1cc([N+](=O)[O-])ccc1Cl + O=S(=O)(c1ccccc1)N(CC(F)(F)F)c1ccc(C(O)(C(F)(F)F)C(F)(F)F)cc1 [T0901317] (first compound 10 µM, partner dose 7 µM) | 42.8
O=C(Nc1cc(C(F)(F)F)cc(C(F)(F)F)c1)c1cc(Cl)ccc1O + CCc1ccc(CCOc2ccc(CC3SC(=O)NC3=O)cc2)nc1 [pioglitazone] (first compound 0.08 µM, partner dose 10 µM) | 88
